Laboratory results reported in PubChem BioAssay AID493208 (National Center for Advancing Translational Sciences (NCATS), 2011).
Out of some 44,000 compounds screened, about 340 (0.77%) were called active. Roughly 5% stayed inconclusive and do not appear here. The call rests on the fitted dose curve; in most records, active means well fitted inhibition curve with a large enough effect; inconclusive means small, poorly fitted or top-dose-only effect; inactive means flat fitted curve, though single readings scatter. The list shows a part of the results.

Assay: Acumen qHTS Assay for Inhibitors of the mTORC1 Signaling Pathway in MEF (Tsc2-/-, p53-/-) Cells: Sytravon;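 further: plate controls were DMSO for no effect and rapamycin for full effect; nearly all actives have a fitted effect of over 50% in size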
Conditions: phospho-rpS6 immunofluorescence/PI, 24 h; series mostly up to 38.3 µM; activity change, negative = inhibition: at the top concentration
In short: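 Plate MEFs (Tsc2-/-, p53-/-, empty vector) in DMEM/10% FBS; after 24 h add compound, incubate 24 h at 37 degree Celsius; fix in PFA/TX-100, block, stain phospho-rpS6 and 10 uM PI; scan at 488 nm; report % positive cells.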

Row | Structure (SMILES) | activity change, negative = inhibition
1 | O=c1oc2ccccc2cc1-c1nnc(Nc2ccc(Cl)cc2Cl)s1 | inactive: 0.486%
2 | CCN(CC)CCCNC(=O)Cc1ccc(NC(=O)N2CCCCc3ccccc32)cc1 | inactive: -3.74%
3 | Cc1nc(-c2ccccc2)sc1-c1ccc(SCC(=O)Nc2cccc(C(F)(F)F)c2)nn1 | inactive: -3.64%
4 | CCC(=O)N1CCc2cc(Br)cc(S(=O)(=O)N3CCC(C(=O)Nc4ccccc4CC)CC3)c21 | inactive: 0.563%
5 | COc1cccc(C2CC(=O)Nc3cc4c(cc32)OCO4)c1OC(C)C (stereo not given) | inactive: -21.2%
6 | CC(=O)NC1CC(=O)N(c2ccc3c(c2)OCCO3)C1 (stereo not given) | inactive: 1.34%
7 | Cc1ccc(-c2nc3cc(Cl)ccc3o2)cc1NC(=O)c1cc([N+](=O)[O-])ccc1N1CCOCC1 | inactive: -10.4%
8 | COc1cc(OC)c(NC(=O)C2CCN(C(=O)c3sc4nc[nH]c(=O)c4c3C)CC2)cc1Cl | inactive: -2.24%
9 | CC(C)Oc1ccc(CNC(=O)C2CCN(c3nc4ccccc4nc3C(F)(F)F)CC2)cc1 | inactive: -1.66%
10 | COCCCNC(=O)c1cnc2c(-c3ccc(F)cc3)c(C)nn2c1C | inactive: 2.29%
11 | CCOC(=O)C1CCN(C(c2cccc(F)c2)c2c(O)cc(C)n(Cc3ccco3)c2=O)CC1 (stereo not given) | inactive: -8.57%
12 | O=C(c1ccc(Br)cc1)N1CCN(CCc2ccncc2)CC1 | inactive: -8.78%
13 | Cn1nc(-c2ccccc2F)c2cc(C(=O)NCCc3ccc(Cl)cc3)sc21 | inactive: -13.1%
14 | CCOc1cccc(C(=O)N2CCC(c3nc4ccccc4s3)CC2)c1 | inactive: -11.8%
15 | COc1ccc(-c2noc(N(c3cccc(Cl)c3)c3nc(-c4ccc(OC)c(OC)c4)no3)n2)cc1OC | inactive: -10.4%
16 | CC(=O)c1ccc(NC(=O)CSc2ccc(-c3cccs3)nn2)cc1 | inactive: -15.1%
17 | CN(C)c1ccc(CNC(=O)c2cnc3sc(N4CCOCC4)nn3c2=O)cc1 | inactive: 3.4%
18 | Brc1cccc(-c2nnc(CN3CCN(c4ccccn4)CC3)o2)c1 | inactive: -4.4%
19 | Cc1ccc(S(=O)(=O)Cc2ccc(C(=O)NCCc3ccc(Cl)cc3)o2)cc1 | inactive: -1.76%
20 | COC(=O)C1=C(C)NC(=O)C1(NC(=O)c1cc(OC)c(OC)c(OC)c1)C(F)(F)F (stereo not given) | inactive: 3.03%
21 | Cc1cc(C)nc(NC(=NCCc2c[nH]c3ccc(Cl)cc23)NC(=O)c2ccccc2C)n1 | inactive: -28.3%
22 | Cc1cccc(-n2cc(-c3ccccc3)c3c(NC4CCCC4)ncnc32)c1 | inactive: -19.5%
23 | C=Cc1ccc(Cn2nc(-c3ccc(C)cc3)ccc2=O)cc1 | inactive: -14.6%
24 | CCOC(=O)c1cc(C)n(CC2CCC(C(=O)Nc3cccc(C)c3)CC2)c1C (stereo not given) | inactive: -12%

Row | Structure (SMILES) | activity change, negative = inhibition
25 | O=C(NC1CCCCC1)c1ccc(CSc2nc3cccnc3n2Cc2ccc(F)cc2)cc1 | inactive: 0.199%
26 | COc1ccc(OC)c(NC(=O)C2CCN(S(=O)(=O)c3ccc4c(c3)CCCC(=O)N4)CC2)c1 | inactive: -6.04%
27 | CCOC(=O)c1ccc(NC(=O)CCC(=O)N2Cc3ccccc3Oc3ncccc32)cc1 | inactive: -1.61%
28 | CCOC(=O)c1c(S(=O)(=O)N2CCCC(C(=O)Nc3cc(C)ccn3)C2)c(C)n(C)c1C (stereo not given) | inactive: 4.75%
29 | O=C(CN1C(=O)COc2ccc(S(=O)(=O)N3CCCC3)cc21)N1CCN(c2ccc(F)cc2)CC1 | inactive: -9.98%
30 | O=C1CC(c2nnc(Cc3ccc(F)cc3Cl)o2)CN1c1ccccc1 (stereo not given) | inactive: -9.59%
31 | O=C1c2[nH]nc(-c3ccccc3O)c2C(c2ccccc2F)N1Cc1cccnc1 (stereo not given) | inactive: -1.61%
32 | Cc1cccc(-n2c(Cc3ccccc3)nnc2SCc2nc(-c3cccs3)no2)c1 | inactive: 3.7%
33 | Cc1cccc(Nc2nnc(-c3ccc(C)c(S(=O)(=O)NCC4CCCO4)c3)c3ccccc23)c1 (stereo not given) | inactive: -20.3%
34 | COCCNc1ccc(-c2nc(-c3ccco3)no2)cc1[N+](=O)[O-] | inactive: -12%
35 | COC(=O)c1ccc(NC(=O)CN2C(=O)CCc3cc(S(=O)(=O)N4CCCCC4)ccc32)cc1 | inactive: 0.148%
36 | COc1ccc(S(=O)(=O)NCC(c2ccco2)N2CCN(c3ccccc3)CC2)cc1OC (stereo not given) | inactive: -7.1%
37 | O=C(O)CCn1c(=O)c2cccn2c2cccnc21 | inactive: -0.133%
38 | Cc1[nH]c(=O)[nH]c(=O)c1S(=O)(=O)N1CCN(c2ccccc2Cl)CC1 | inactive: -0.855%
39 | CCc1ccccc1Nc1nn2c(=O)c3ccc(C(=O)NC(C)c4ccccc4)cc3nc2s1 (stereo not given) | inactive: -4.18%
40 | CCc1ccc(NC(=O)CC2C(=O)N(c3ccc(Cl)cc3)C(=O)N2Cc2ccco2)cc1 (stereo not given) | inactive: -7.33%
41 | COc1cc2[nH]c(=O)n(CCCC(=O)NCc3ccc(Cl)cc3)c(=O)c2cc1OC | inactive: 4.27%
42 | Cc1ccc(NC(=O)C(=O)NCC(c2cccnc2)N2CCN(c3ccccc3F)CC2)cc1Cl (stereo not given) | inactive: -4.46%
43 | CCOc1cc2[nH]c(=O)n(CCCCC(=O)N3CCN(c4cccc(Cl)c4)CC3)c(=O)c2cc1OCC | inactive: -1.15%
44 | Cc1cccc2sc(N(Cc3cccnc3)C(=O)c3cccs3)nc12 | inactive: -2.1%
45 | CCc1ccc(CN2CCc3nc(Nc4ccccc4)ncc3C2)cc1 | inactive: 0%
46 | CC(=O)Nc1ccc(NC(=O)c2cc3sccc3n2Cc2ccc(F)cc2)cc1 | inactive: -9.15%
47 | CCOC(=O)c1c(C)[nH]c(CCC(=O)NCc2ccc(F)cc2)c1C | inactive: 12%
48 | Cc1cccc(N2CCN(S(=O)(=O)c3ccc(-c4cc(C(F)(F)F)on4)s3)CC2)c1C | inactive: 6.08%

Row | Structure (SMILES) | activity change, negative = inhibition
49 | Cc1ccccc1OCC(=O)Nc1ccc2nc(SCC(=O)N3CCc4ccccc43)sc2c1 | inactive: -1.45%
50 | O=C(C1CCCN(S(=O)(=O)c2ccc(Br)s2)C1)N1CCN(c2cccc(Cl)c2)CC1 (stereo not given) | inactive: -5.3%
51 | COc1cccc(C2C(C(=O)Nc3ccc(Cl)cc3)=C(C)Nc3nc4ccccc4n32)c1 (stereo not given) | inactive: -4.61%
52 | COc1ccccc1C1Nc2c(sc3nc(C)cc(C)c23)C(=O)N1c1ccccc1 (stereo not given) | inactive: -0.462%
53 | Cc1ccc(CNc2ncnc3c2cnn3-c2ccc(Cl)cc2)cc1 | inactive: -0.546%
54 | COc1cccc(CC(=O)Nc2ccc(-c3nc4ccccc4s3)cc2)c1 | inactive: -0.723%
55 | COc1ccc(Cl)cc1NC(=O)c1nnn(Cc2cccc(C(F)(F)F)c2)c1N | inactive: -7.44%
56 | COc1ccc2c(c1)c1c(c(=O)n(-c3ccc(C)cc3)c(=O)n1CC(=O)NCc1ccc(C)cc1)n2C | inactive: -0.939%
57 | COc1ccc(OCC(=O)Nc2cc(-c3nc4ccccc4s3)ccc2C)cc1 | inactive: 9.62%
58 | Cc1cc2c(cc1C)NC(CC(=O)Nc1cccc(Cl)c1)C(=O)N2 (stereo not given) | inactive: 8.8%
59 | NS(=O)(=O)c1ccc(CCNC(=O)Cn2c(-c3cccs3)cc3ccccc32)cc1 | inactive: -13.2%
60 | C=CCc1cccc2cc(C(=O)NCCc3c(C)[nH]c4c(C)cccc34)c(=O)oc12 | inactive: -2.1%
61 | O=C(NCC(c1ccc2c(c1)OCO2)N1CCOCC1)C(=O)Nc1ccccc1 (stereo not given) | inactive: -5.8%
62 | CCN(CC)c1ccc(NC(=O)CCc2nc3cccnc3n2Cc2cccs2)c(C)c1 | inactive: 0.305%
63 | CNc1ccc(-c2nc(-c3ccco3)no2)cc1[N+](=O)[O-] | inactive: 0.82%
64 | Cc1ccccc1NC(=O)c1ccc2c(O)c(S(=O)(=O)c3ccccc3)c(=O)[nH]c2c1 | inactive: -2.15%
65 | CCOC(=O)N1CCC(NC(=O)c2cnn(-c3ccc(F)cc3F)c2C2CCN(C(=O)OC(C)(C)C)CC2)CC1 | inactive: 6.8%
66 | COc1ccc(CCNC(=O)c2c(C)oc3ncnc(N4CCOCC4)c23)c(OC)c1 | inactive: 4.06%
67 | Cc1ccc(S(=O)(=O)Nc2cc3c(cc2C)n(C)c(=O)c(=O)n3C)c(C)c1 | inactive: -0.856%
68 | Cn1nnnc1SCCCNCc1ccc(-c2ccc(F)c(Cl)c2)o1 | inactive: -3.74%
69 | CCc1nc(-c2cc(S(=O)(=O)N3CCN(c4ccccc4F)CC3)ccc2OC)no1 | inactive: 0.122%
70 | CCCN1C(C(=O)c2ccccc2)=C(OC(=O)c2ccc(OC)cc2)c2ccccc2S1(=O)=O | inactive: 1.13%
71 | O=C(Cn1c(=O)c(C(F)(F)F)nc2ccccc21)Nc1cccc(Br)c1 | inactive: -13.4%
72 | Cc1ccc(CNC(=O)C2CCCN(S(=O)(=O)c3cn(C)cn3)C2)cc1 (stereo not given) | inactive: 0%

Row | Structure (SMILES) | activity change, negative = inhibition
73 | O=C(NCCc1ccccc1)c1ccc(CS(=O)(=O)Cc2ccccc2Cl)o1 | inactive: 3.92%
74 | CCc1ccc(NC(=O)CN2C(=O)CCSc3ccccc32)cc1 | inactive: -6.36%
75 | Cc1cc(=O)n(CC(=O)NCc2ccc(OC(C)C)cc2)c2c1c(C)nn2-c1cccc(F)c1 | inactive: 4.96%
76 | Cc1cc(C)cc(NS(=O)(=O)c2ccc(N3CCCCS3(=O)=O)cc2)c1 | inactive: 0%
77 | Cc1ccc(NC(=O)C(C)Sc2nc(-c3ccccc3)c(C#N)c(=O)[nH]2)c(C)c1 (stereo not given) | inactive: 0.507%
78 | O=C(Nc1nnc(S(=O)(=O)N2CCOCC2)s1)c1ccccc1F | inactive: -15.4%
79 | CC(C)Cc1nn2c(=O)cc(COC(=O)c3ccc(NC(=O)CCc4ccccc4)cc3)nc2s1 | inactive: 2.82%
80 | O=c1c(N2CCc3ccccc3C2)csc2ccc(Cl)cc12 | inactive: 0.473%
81 | CC(C)c1cnc2c(c1SCC(=O)N1CCCCC1)c(=O)n(C)c(=O)n2C | inactive: 0%
82 | COc1ccc(Nc2c(-c3ccc(N4CCOCC4)cc3)nc3ncccn23)cc1OC | inactive: -5.84%
83 | CCOc1cc(CN2CCN(S(=O)(=O)c3ccc(C)cc3)CC2)ccc1OC | inactive: 1.92%
84 | COc1ccc(/C=C/C(=O)Nc2sc(C)c(C)c2C(=O)O)cc1 | inactive: -0.404%
85 | CCc1ccc2c(c1)NC(c1ccc(C)cc1)=NC(c1cccs1)=N2 | inactive: -3.13%
86 | CCOC(=O)N1CCc2c(sc3c2c(=O)n(Cc2ccccc2)c(=O)n3CC(=O)Nc2ccc(C)cc2C)C1 | inactive: -19.3%
87 | CCn1c(=O)sc2cc(NS(=O)(=O)c3ccc(C)cc3)ccc21 | inactive: -3.84%
88 | CC(=O)Nc1ccc(NC(=O)c2ccc3c(c2)NC(=O)c2ccccc2S3)cc1 | inactive: -0.825%
89 | CCc1ccccc1N(C)C(=O)c1cn(-c2cccc(OC)c2)c(=O)c2ccccc12 | inactive: 1.6%
90 | O=C(Nc1ccc(F)cc1F)C1CCN(S(=O)(=O)c2ccc3[nH]c(=O)ccc3c2)CC1 | inactive: -3.1%
91 | CCc1ccc(NC(=O)Cn2nnc(C(=O)NCc3ccc(C)cc3)c2N)cc1 | inactive: 0.786%
92 | COc1cc(NC(=O)CCc2nc3cccnc3n2Cc2cccs2)cc(OC)c1OC | inactive: 0.744%
93 | CC1(C(=O)NC2CCCCC2)Cc2ccccc2C(=O)N1Cc1ccccc1Cl (stereo not given) | inactive: -8.95%
94 | CCc1ccc(OCc2nc(-c3ccc(OC)c(OC)c3)no2)c(Br)c1 | inactive: 3.71%
95 | O=C(CCc1nc2cccnc2n1-c1ccccc1)Nc1ccc(Cl)c(Cl)c1 | inactive: 6.01%
